# Laboratory results taken from the supplement of paper PMC8728848.
# The other results are listed elsewhere or left out.
# B1: LecB PA7 (Pseudomonas aeruginosa) (protein)
# chain: MATQGVFTLPANTRFGVTAFANSSATQTVKVLVNNETAATFTGQSTNNAVIGSQVLNSGGGGKVQIQVSVNGRSSDLVSAQVILANELNVALVGSEDSTDNDYNDAVVVINWPLG
# Columns and labels:
# Assay in all cases: glycan array binding signal (z-score within array); higher = stronger binding
# Details in all cases: glycan notation: IUPAC condensed, linker removed
# [1] = target: Neu5Ac(a2-3)Gal(b1-4)GlcNAc(b1-6)GalNAc
# Method in brief: (§1)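 Glycan array data came from 3228 arrays in the Consortium for Functional Glycomics database, and only arrays with an available protein sequence were kept. Glycan names were put into IUPAC-condensed notation, and columns mapping to the same glycan were averaged. The binding signal is a within-array Z-score, averaged across arrays of one protein sequence run at different concentrations or buffers and across linkers. A negative Z-score can be read as non-binding.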
# [2] = target: Neu5Ac(a2-3)Gal(b1-4)GlcNAc(b1-6)[Gal(b1-3)]GalNAc
# Method in brief: as §1
# [3] = target: Neu5Ac(a2-3)Gal(b1-4)GlcNAc(b1-6)[Neu5Ac(a2-3)Gal(b1-3)]GalNAc
# Method in brief: as §1
# [4] = target: Neu5Ac(a2-3)Gal(b1-4)GlcNAc6S
# Method in brief: as §1
# [5] = target: Neu5Ac(a2-3)Gal(b1-4)[Fuc(a1-3)]GlcNAc
# Method in brief: as §1
# [6] = target: Neu5Ac(a2-3)Gal(b1-4)[Fuc(a1-3)]GlcNAc(b1-2)Man
# Method in brief: as §1
# [7] = target: Neu5Ac(a2-3)Gal(b1-4)[Fuc(a1-3)]GlcNAc(b1-3)Gal
# Method in brief: as §1
# [8] = target: Neu5Ac(a2-3)Gal(b1-4)[Fuc(a1-3)]GlcNAc(b1-3)Gal(b1-4)GlcNAc
# Method in brief: as §1
# [9] = target: Neu5Ac(a2-3)Gal(b1-4)[Fuc(a1-3)]GlcNAc(b1-3)Gal(b1-4)[Fuc(a1-3)]GlcNAc(b1-3)Gal(b1-4)[Fuc(a1-3)]GlcNAc
# Method in brief: as §1
# [10] = target: Neu5Ac(a2-3)Gal(b1-4)[Fuc(a1-3)]GlcNAc(b1-3)GalNAc
# Method in brief: as §1
# [11] = target: Neu5Ac(a2-3)Gal(b1-4)[Fuc(a1-3)]GlcNAc(b1-6)[Gal(b1-3)]GalNAc
# Method in brief: as §1
# [12] = target: Neu5Ac(a2-3)Gal(b1-4)[Fuc(a1-3)]GlcNAc(b1-6)[Neu5Ac(a2-3)Gal(b1-3)]GalNAc
# Method in brief: as §1
# [13] = target: Neu5Ac(a2-3)Gal(b1-4)[Fuc(a1-3)]GlcNAc6S
# Method in brief: as §1
# [14] = target: Neu5Ac(a2-3)Gal6S(b1-4)GlcNAc
# Method in brief: as §1
# [15] = target: Neu5Ac(a2-3)Gal6S(b1-4)[Fuc(a1-3)]GlcNAc
# Method in brief: as §1
# Neu5Ac(a2-3)GalNAc = target: Neu5Ac(a2-3)GalNAc
# Method in brief: as §1
# [16] = target: Neu5Ac(a2-3)GalNAc(b1-4)GlcNAc
# Method in brief: as §1
# [17] = target: Neu5Ac(a2-3)[GalNAc(b1-4)]Gal(b1-4)Glc
# Method in brief: as §1
# [18] = target: Neu5Ac(a2-3)[GalNAc(b1-4)]Gal(b1-4)GlcNAc
# Method in brief: as §1
# [19] = target: Neu5Ac(a2-3)[GalNAc(b1-4)]Gal(b1-4)GlcNAc(b1-3)GalNAc
# Method in brief: as §1
# [20] = target: Neu5Ac(a2-3)[Neu5Ac(a2-6)]GalNAc
# Method in brief: as §1
# Neu5Ac(a2-6)Gal = target: Neu5Ac(a2-6)Gal
# Method in brief: as §1
# [21] = target: Neu5Ac(a2-6)Gal(b1-3)GlcNAc(b1-3)[Gal(b1-4)GlcNAc(b1-6)]Gal(b1-4)Glc
# Method in brief: as §1
# Neu5Ac(a2-6)Gal(b1-4)Glc = target: Neu5Ac(a2-6)Gal(b1-4)Glc
# Method in brief: as §1
# [22] = target: Neu5Ac(a2-6)Gal(b1-4)GlcNAc
# Method in brief: as §1
# [23] = target: Neu5Ac(a2-6)Gal(b1-4)GlcNAc(b1-2)Man
# Method in brief: as §1
# [24] = target: Neu5Ac(a2-6)Gal(b1-4)GlcNAc(b1-2)Man(a1-3)Man(b1-4)GlcNAc(b1-4)GlcNAc
# Method in brief: as §1
# [25] = target: Neu5Ac(a2-6)Gal(b1-4)GlcNAc(b1-2)Man(a1-3)[Gal(b1-4)GlcNAc(b1-2)Man(a1-6)]Man(b1-4)GlcNAc(b1-4)GlcNAc
# Method in brief: as §1
# [26] = target: Neu5Ac(a2-6)Gal(b1-4)GlcNAc(b1-2)Man(a1-3)[GlcNAc(b1-4)][Neu5Ac(a2-6)Gal(b1-4)GlcNAc(b1-2)Man(a1-6)]Man(b1-4)GlcNAc(b1-4)GlcNAc
# Method in brief: as §1
# [27] = target: Neu5Ac(a2-6)Gal(b1-4)GlcNAc(b1-2)Man(a1-3)[Man(a1-6)]Man(b1-4)GlcNAc(b1-4)GlcNAc
# Method in brief: as §1
# [28] = target: Neu5Ac(a2-6)Gal(b1-4)GlcNAc(b1-2)Man(a1-3)[Neu5Ac(a2-3)Gal(b1-4)GlcNAc(b1-2)Man(a1-6)]Man(b1-4)GlcNAc(b1-4)GlcNAc
# Method in brief: as §1
# [29] = target: Neu5Ac(a2-6)Gal(b1-4)GlcNAc(b1-2)Man(a1-3)[Neu5Ac(a2-6)Gal(b1-4)GlcNAc(b1-2)Man(a1-6)]Man(b1-4)GlcNAc(b1-4)GlcNAc
# Method in brief: as §1
# [30] = target: Neu5Ac(a2-6)Gal(b1-4)GlcNAc(b1-2)Man(a1-3)[Neu5Ac(a2-6)Gal(b1-4)GlcNAc(b1-2)Man(a1-6)]Man(b1-4)GlcNAc(b1-4)[Fuc(a1-6)]GlcNAc
# Method in brief: as §1
# [31] = target: Neu5Ac(a2-6)Gal(b1-4)GlcNAc(b1-2)Man(a1-6)Man(b1-4)GlcNAc(b1-4)GlcNAc
# Method in brief: as §1
# [32] = target: Neu5Ac(a2-6)Gal(b1-4)GlcNAc(b1-2)Man(a1-6)[Gal(b1-4)GlcNAc(b1-2)Man(a1-3)]Man(b1-4)GlcNAc(b1-4)GlcNAc
# Method in brief: as §1
# [33] = target: Neu5Ac(a2-6)Gal(b1-4)GlcNAc(b1-2)Man(a1-6)[GlcNAc(b1-2)Man(a1-3)]Man(b1-4)GlcNAc(b1-4)GlcNAc
# Method in brief: as §1
# [34] = target: Neu5Ac(a2-6)Gal(b1-4)GlcNAc(b1-2)Man(a1-6)[Man(a1-3)]Man(b1-4)GlcNAc(b1-4)GlcNAc
# Method in brief: as §1
# [35] = target: Neu5Ac(a2-6)Gal(b1-4)GlcNAc(b1-2)[Neu5Ac(a2-6)Gal(b1-4)GlcNAc(b1-4)]Man(a1-3)[GlcNAc(b1-4)][Neu5Ac(a2-6)Gal(b1-4)GlcNAc(b1-2)[Neu5Ac(a2-6)Gal(b1-4)GlcNAc(b1-6)]Man(a1-6)]Man(b1-4)GlcNAc(b1-4)GlcNAc
# Method in brief: as §1
# [36] = target: Neu5Ac(a2-6)Gal(b1-4)GlcNAc(b1-2)[Neu5Ac(a2-6)Gal(b1-4)GlcNAc(b1-4)]Man(a1-3)[GlcNAc(b1-4)][Neu5Ac(a2-6)Gal(b1-4)GlcNAc(b1-4)Man(a1-6)]Man(b1-4)GlcNAc(b1-4)GlcNAc
# Method in brief: as §1
# [37] = target: Neu5Ac(a2-6)Gal(b1-4)GlcNAc(b1-2)[Neu5Ac(a2-6)Gal(b1-4)GlcNAc(b1-6)]Man(a1-6)[Neu5Ac(a2-6)Gal(b1-4)GlcNAc(b1-2)Man(a1-3)][GlcNAc(b1-4)]Man(b1-4)GlcNAc(b1-4)GlcNAc
# Method in brief: as §1
# [38] = target: Neu5Ac(a2-6)Gal(b1-4)GlcNAc(b1-3)Gal(b1-3)GlcNAc
# Method in brief: as §1
# [39] = target: Neu5Ac(a2-6)Gal(b1-4)GlcNAc(b1-3)Gal(b1-4)GlcNAc
# Method in brief: as §1
# [40] = target: Neu5Ac(a2-6)Gal(b1-4)GlcNAc(b1-3)Gal(b1-4)GlcNAc(b1-2)Man(a1-3)[Neu5Ac(a2-6)Gal(b1-4)GlcNAc(b1-3)Gal(b1-4)GlcNAc(b1-2)Man(a1-6)]GalNAc
# Method in brief: as §1
# [41] = target: Neu5Ac(a2-6)Gal(b1-4)GlcNAc(b1-3)Gal(b1-4)GlcNAc(b1-3)Gal(b1-4)GlcNAc
# Method in brief: as §1
# [42] = target: Neu5Ac(a2-6)Gal(b1-4)GlcNAc(b1-3)Gal(b1-4)GlcNAc(b1-3)Gal(b1-4)GlcNAc(b1-2)Man(a1-3)[Neu5Ac(a2-6)Gal(b1-4)GlcNAc(b1-3)Gal(b1-4)GlcNAc(b1-3)Gal(b1-4)GlcNAc(b1-2)Man(a1-6)]GalNAc
# Method in brief: as §1
binder,measurement,setting,value
B1,glycan array binding signal (z-score),[1],-0.505
same,glycan array binding signal (z-score),[2],-0.087
same,glycan array binding signal (z-score),[3],-0.5
same,glycan array binding signal (z-score),[4],-0.511
same,glycan array binding signal (z-score),[5],0.582
same,glycan array binding signal (z-score),[6],0.573
same,glycan array binding signal (z-score),[7],1.41
same,glycan array binding signal (z-score),[8],1.28
same,glycan array binding signal (z-score),[9],2.56
same,glycan array binding signal (z-score),[10],-0.303
same,glycan array binding signal (z-score),[11],-0.309
same,glycan array binding signal (z-score),[12],-0.382
same,glycan array binding signal (z-score),[13],0.393
same,glycan array binding signal (z-score),[14],0.253
same,glycan array binding signal (z-score),[15],0.032
same,glycan array binding signal (z-score),Neu5Ac(a2-3)GalNAc,-0.323
same,glycan array binding signal (z-score),[16],-0.506
same,glycan array binding signal (z-score),[17],-0.486
same,glycan array binding signal (z-score),[18],-0.51
same,glycan array binding signal (z-score),[19],-0.497
same,glycan array binding signal (z-score),[20],-0.175
same,glycan array binding signal (z-score),Neu5Ac(a2-6)Gal,-0.497
same,glycan array binding signal (z-score),[21],-0.484
same,glycan array binding signal (z-score),Neu5Ac(a2-6)Gal(b1-4)Glc,-0.498
same,glycan array binding signal (z-score),[22],-0.499
same,glycan array binding signal (z-score),[23],-0.491
same,glycan array binding signal (z-score),[24],-0.495
same,glycan array binding signal (z-score),[25],-0.153
same,glycan array binding signal (z-score),[26],-0.504
same,glycan array binding signal (z-score),[27],0.098
same,glycan array binding signal (z-score),[28],-0.502
same,glycan array binding signal (z-score),[29],-0.47
same,glycan array binding signal (z-score),[30],0.226
same,glycan array binding signal (z-score),[31],-0.497
same,glycan array binding signal (z-score),[32],-0.515
same,glycan array binding signal (z-score),[33],-0.51
same,glycan array binding signal (z-score),[34],1.12
same,glycan array binding signal (z-score),[35],-0.507
same,glycan array binding signal (z-score),[36],-0.508
same,glycan array binding signal (z-score),[37],-0.484
same,glycan array binding signal (z-score),[38],-0.507
same,glycan array binding signal (z-score),[39],-0.504
same,glycan array binding signal (z-score),[40],-0.435
same,glycan array binding signal (z-score),[41],-0.512
same,glycan array binding signal (z-score),[42],-0.466
